PubChem BioAssay AID686978 (National Center for Advancing Translational Sciences (NCATS), 2013)
Values joined by “and” are separate entries in the source; they are usually repeats but may differ in a detail not shown here. Equal entries are not always repeated. Hit rate of the full screen: of about 420,000 compounds, about 64,000 (15%) were called active. The inconclusive results got no clear call from the source; some entries with a clear call stand among them for comparison. The call rests on the fitted dose curve; in most records, active means well fitted inhibition curve with a large enough effect; inconclusive means small, poorly fitted or top-dose-only effect; inactive means flat fitted curve, though single readings scatter. Where the call is inconclusive, the potency comes from a doubtful curve fit.

Assay: qHTS for Inhibitors of human tyrosyl-DNA phosphodiesterase 1 (TDP1): qHTS in cells in absence of CPT; further: nearly all actives have a fitted effect of over 55% in size
Settings: DT40 Tdp1-/- hTDP1 cells, no CPT, ATP luminescence, 48 h; activity change, negative = growth inhibition: at 46.2 µM (top of the series) unless noted
How it was run: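 Seeded 400 DT40-hTDP1 cells/well (vehicle DMSO, no 20 nM CPT); pinned compounds; ≥48 hr at 37 °C; CellTiter-Glo luminescence as viability measure.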
On the % scale 0 is the no-effect control and ±100 the full control effect; potency means the concentration at half of the fitted maximal effect; tags describe the fitted curve by direction and shape.

| Structure (SMILES) | Potency | activity change, negative = growth inhibition |
| --- | --- | --- |
| CCOC(=O)C1(C)CCN1C(=O)c1ccc(C#N)cc1 (stereo not drawn) | inactive |  |
| CC1(C)C=Cc2cc(-c3coc4cc(O)cc(O)c4c3=O)cc(O)c2O1 | inconclusive: 29.1 µM [inhibitor, single point] |  |
| O=c1c2c3c(sc2ncn1/N=C/c1ccc([N+](=O)[O-])o1)CCCC3 | active: 2.31 µM |  |
| CN(/C=C/c1c([N+](=O)[O-])c(=O)n(C)c(=O)n1C)c1ccccc1 | inactive |  |
| Cc1cc(=O)nc2c3ccccc3n(CC(=O)NCCC3=CCCCC3)n12 | inactive |  |
| Cc1[nH]c(=O)[nH]c(=O)c1S(=O)(=O)N(CC(C)C)CC(C)C | inactive |  |
| Cc1ccc(C)c(/C(O)=C2\C(=O)C(=O)N(CCCn3ccnc3)C2c2cccnc2)c1 (stereo not drawn) | inactive |  |
| O=C(O)CN1C(=O)/C(=C/c2ccc(SCc3ccccc3)o2)SC1=S | inconclusive: 29.1 µM [inhibitor, single point] |  |
| O=C(COc1ccccc1)Nc1ccc(C(=O)N2CCCC2)cc1 | inactive |  |
| CCc1ccccc1N1C(=O)C2CC=CCC2C1=O (stereo not drawn) | active: 16.4 µM |  |
| COc1ccc(-c2cc(C)no2)cc1S(=O)(=O)NCc1ccco1 | inconclusive: 23.1 µM [inhibitor, single point] |  |
| CC(=O)N1CCC2(CCCN(C(c3ccccc3)c3ccccc3)C2)CC1 | inconclusive: 20.6 µM [inhibitor, partial curve] |  |
| CCN1C(=O)C(O)(CC(=O)/C=C/C=C/c2ccccc2)c2ccccc21 (stereo not drawn) | inconclusive: 20.6 µM [inhibitor, single point] |  |
| Cc1ccc(NS(=O)(=O)c2ccc(C(=O)N3CC(C)CC(C)C3)cc2)cc1 (stereo not drawn) | active: 16.4 µM |  |
| CCN(CC)S(=O)(=O)c1ccc2c(c1)c(=O)c(C(=O)NCc1ccccc1Cl)cn2C | active: 7.31 µM |  |
| N#C/C(=C/c1cn(-c2ccccc2)nc1-c1cccc(OCc2ccccc2)c1)C(=O)NCCCn1ccnc1 | inconclusive: 29.1 µM [inhibitor, single point] |  |
| CC1CC(C)CN(c2nc3c(c(=O)n(C)c(=O)n3C)n2CCSc2ncccn2)C1 (stereo not drawn) | inconclusive: 20.6 µM [inhibitor, partial curve] |  |
| Cc1noc(-c2ccccc2)c1NC(=O)Nc1ccc(Cl)cc1 | inconclusive: 29.1 µM [inhibitor, single point] |  |
| CC(C)(C)OC(=O)C[C@H]1C/C=C\C[C@H](CC(=O)N(CCO)Cc2ccccc2)C(=O)N2CCC[C@H]2COC1=O | inconclusive: 18.4 µM [inhibitor, single point] |  |
| O=C(CSc1c2c(nc3cc(Cl)ccc13)CCCC2)N1CCN(c2ccccc2)CC1 | active: 5.8 µM |  |
| CC(=O)c1c(C)[nH]c(C(=O)NCc2ccccc2)c1C |  | inconclusive: -31.2% [inhibitor] |
| Cc1cccc(NC(=O)C(C)Sc2nnc(-c3cccnc3)o2)c1 (stereo not drawn) | inconclusive: 6.51 µM [inhibitor, single point] |  |

| Structure (SMILES) | Potency | activity change, negative = growth inhibition |
| --- | --- | --- |
| CCCS(=O)(=O)NCc1cn2cccc(C)c2n1 | inactive |  |
| O=C(NCC(c1ccco1)N1CCCCC1)c1ccc2c(c1)S(=O)(=O)c1ccccc1C2=O (stereo not drawn) | inconclusive: 18.4 µM [inhibitor, single point] |  |
| COc1cccc(C(=O)NNc2nc(C)cc(C)n2)c1 | inactive |  |
| C=CCn1c(NCCO)nc2c1c(=O)n(C)c(=O)n2C | inconclusive: 9.2 µM [inhibitor, partial curve] |  |
| Cc1onc(-c2ccccc2)c1C(=O)NC(=S)NNC(=O)c1cccnc1 | inconclusive: 14.6 µM [inhibitor, partial curve] |  |
| Cc1cc(C)c2nc3sc(=Cc4ccc(-c5ccccc5C(=O)O)o4)c(=O)n3c2c1 | inconclusive: 16.4 µM [inhibitor, single point] |  |
| O=C(CCNS(=O)(=O)c1cccs1)N1CCN(c2ccc(F)cc2)CC1 | inconclusive: 20.6 µM [inhibitor, single point] |  |
| O=C(NCc1ccc2c(c1)OCO2)c1ccc2snnc2c1 | inconclusive: 29.1 µM [inhibitor, single point] |  |
| Cc1cccc(-c2noc(CCCC(=O)NC3CCCC3)n2)c1 | inconclusive: 29.1 µM [inhibitor, single point] |  |
| CCOC(=O)c1oc2ccc(Br)cc2c1NC(=O)CN1CCN(C)CC1 | inconclusive: 29.1 µM [inhibitor, single point] |  |
| O=C(O)C(Nc1nc(C(F)(F)F)nc2ccccc12)c1ccccc1 (stereo not drawn) | inactive |  |
| Cc1ccc(CN2CCC(c3cc(-c4cccs4)n[nH]3)CC2)cc1 | inconclusive: 23.1 µM [inhibitor, single point] |  |
| Cc1ccc(S(=O)(=O)Cc2nc(-c3ccc(C(=O)NCc4ccccc4C)cc3)oc2C)cc1 | inconclusive: 11.6 µM [inhibitor, partial curve] |  |
| CCOC1=C2[C@H](c3ccccc3Cl)N(S(=O)(=O)c3ccc(C)cc3)C[C@H]2C(C#N)(C#N)C(C#N)(C#N)C1 | active: 9.2 µM |  |
| COc1ccc(CN2C(=O)C(CC(C)C)Nc3ncnc(N4CCN(c5ccccc5)CC4)c32)cc1 (stereo not drawn) | inconclusive: 29.1 µM [inhibitor, single point] and inconclusive: 14.6 µM [inhibitor, partial curve, poor fit] |  |
| Cc1cccnc1C(NC(=O)C1CCN(CCOc2ccc(F)cc2)CC1)c1ccc(F)cc1 (stereo not drawn) | inconclusive: 25.9 µM [inhibitor, single point] |  |
| Cc1ncc([N+](=O)[O-])n1CC(=O)Nc1cccc(C(F)(F)F)c1 | inconclusive: 6.51 µM [inhibitor, partial curve] |  |
| O=C(Cn1nc(-c2ccccc2Cl)ccc1=O)Nc1ccccc1-c1ccccc1 | active: 18.4 µM |  |
| COc1ccc(-c2ccc(-c3noc(-c4ccccc4C)n3)c(OC)n2)cc1 | inconclusive: 25.9 µM [inhibitor, single point] |  |
| COc1cccc(CC2(CO)CCCN(CC3=Cc4cc(Cl)ccc4OC3)C2)c1 (stereo not drawn) | inconclusive: 29.1 µM [inhibitor, single point] |  |
| CCCN1CCC2(CC1)C(C#N)=C(N)Oc1c2sc2nc(C)cc(C)c12 | inconclusive: 20.6 µM [inhibitor, single point] |  |
